Structures can show the parent of a compound that is named as a salt. ± gives the standard error. About 130 (10%) of roughly 1,300 compounds showed an effect of 50% or more. This is a selection; strong and weak results do not stand in their true shares.

The test system of this experiment is Trichoderma virens ATCC 9645. The experiment in a line: growth yield (OD600) with compound + IPBC relative to untreated control; higher = less growth inhibition. The note with it: compound concentration: 100 uM, IPBC concentration: 200 ng/ml. A digest of the protocol: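 Spores of Trichoderma virens ATCC 9645, taken from potato dextrose agar plates grown for 7 days, were suspended at 15,000 spores ml^−1 in potato dextrose broth. In 96-well plates, 100 μl aliquots held library compounds at 100 μM final, either alone or together with a biocide at 200 ng ml^−1, and were grown at 30 °C. A BioTek EL800 read OD600 at 40 h and 72 h. Growth values are given relative to the control lacking both agents and are means of duplicate screens.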

On to `C[C@@H](O)[C@H]1C(=O)N2C(C(=O)O)=C(SCCNC=N)C[C@H]12` [Imipenem] + CCCCNC(=O)OCC#CI [3-iodo-2-propynyl butylcarbamate (IPBC)], for which the growth yield by setting is: (40 h) 84.5 ± 1.9%; (72 h) 90.6 ± 1.3%.
As to `c1ccc2c(c1)CCCC2C1=NCCN1` (stereo not drawn) [Tetrahydrozoline hydrochloride] + CCCCNC(=O)OCC#CI [3-iodo-2-propynyl butylcarbamate (IPBC)], the growth yield reads like this: (40 h) 88 ± 3.2%; (72 h) 91 ± 2.9%.
Turning to `O=C1NCCN1c1ncc([N+](=O)[O-])s1` [Niridazole] + CCCCNC(=O)OCC#CI [3-iodo-2-propynyl butylcarbamate (IPBC)], the growth yield runs as follows: (40 h) 80.7 ± 2.5%; (72 h) 89.5 ± 2.2%.
In the case of `Nc1ccc(S(=O)(=O)NC(=O)c2ccccc2)cc1` [Sulfabenzamide] + CCCCNC(=O)OCC#CI [3-iodo-2-propynyl butylcarbamate (IPBC)], the growth yield was found to be 102 ± 4.6% (40 h) and 100 ± 4.1% (72 h).
As to `C=C(CC)C(=O)c1ccc(OCC(=O)O)c(Cl)c1Cl` [Ethacrynic acid] + CCCCNC(=O)OCC#CI [3-iodo-2-propynyl butylcarbamate (IPBC)], the growth yield (40 h) came to 75.8 ± 5.6% and the growth yield (72 h) turned out to be 80.5 ± 1.7%.
Take `CCN(CC)CCCC(C)Nc1ccnc2cc(Cl)ccc12` (stereo not drawn) [Chloroquine diphosphate] + CCCCNC(=O)OCC#CI [3-iodo-2-propynyl butylcarbamate (IPBC)]: the growth yield runs as follows: (40 h) 87.7 ± 5.7%; (72 h) 92.1 ± 5.7%.
For `CS(=O)(=O)c1ccc([C@@H](O)[C@@H](CF)NC(=O)C(Cl)Cl)cc1` [Florfenicol] + CCCCNC(=O)OCC#CI [3-iodo-2-propynyl butylcarbamate (IPBC)], in that order: 81.8 ± 4.6% and 84.7 ± 3.8%.
As to `CC(C(=O)O)c1cccc(Oc2ccccc2)c1` (stereo not drawn) [Fenoprofen calcium salt dihydrate] + CCCCNC(=O)OCC#CI [3-iodo-2-propynyl butylcarbamate (IPBC)], the growth yield reads like this: (40 h) 73.9 ± 12%; (72 h) 84 ± 9.1%.
Regarding `Oc1ccc(C2CNCCc3c2cc(O)c(O)c3Cl)cc1` (stereo not drawn) [Fenoldopam] + CCCCNC(=O)OCC#CI [3-iodo-2-propynyl butylcarbamate (IPBC)], the growth yield was 83.71 ± 0.48% (40 h) and 88.2 ± 1.8% (72 h).
Turning to `CCCc1ncc(C[n+]2ccccc2C)c(N)n1` [Amprolium hydrochloride] + CCCCNC(=O)OCC#CI [3-iodo-2-propynyl butylcarbamate (IPBC)], the growth yield by setting is: (40 h) 89.11 ± 0.16%; (72 h) 94.6 ± 2.5%.
Regarding `CCn1cc(C(=O)O)c(=O)c2cc(F)c(N3CCNCC3)nc21` [Enoxacin] + CCCCNC(=O)OCC#CI [3-iodo-2-propynyl butylcarbamate (IPBC)], the growth yield by setting is: (40 h) 83.9 ± 1.6%; (72 h) 87 ± 1.5%.
For `CC(=O)OCC(=O)NCCCOc1cccc(CN2CCCCC2)c1` [Roxatidine Acetate hydrochloride] + CCCCNC(=O)OCC#CI [3-iodo-2-propynyl butylcarbamate (IPBC)], the growth yield by setting is: (40 h) 82.9 ± 2.2%; (72 h) 92 ± 2%.
In the case of `NS(=O)(=O)c1cc(C2(O)NC(=O)c3ccccc32)ccc1Cl` (stereo not drawn) [Chlorthalidone] + CCCCNC(=O)OCC#CI [3-iodo-2-propynyl butylcarbamate (IPBC)], the growth yield by setting is: (40 h) 96.3 ± 5.4%; (72 h) 100 ± 2.2%.
As to `C=CC(N)CCC(=O)O` (stereo not drawn) [Vigabatrin hydrochloride] + CCCCNC(=O)OCC#CI [3-iodo-2-propynyl butylcarbamate (IPBC)], the growth yield is, setting by setting: (40 h) 94.7 ± 11%; (72 h) 96 ± 6%.
For the compound `CC(=O)OCC(=O)[C@@]1(O)CC[C@H]2[C@@H]3CCC4=CC(=O)CC[C@]4(C)[C@H]3[C@@H](O)C[C@@]21C` [Cortisol acetate] + CCCCNC(=O)OCC#CI [3-iodo-2-propynyl butylcarbamate (IPBC)], the growth yield runs as follows: (40 h) 92.6 ± 2.7%; (72 h) 95.9 ± 1.7%.
Regarding `Cc1ncc(C[n+]2csc(CCO)c2C)c(N)n1` [Thiamine hydrochloride] + CCCCNC(=O)OCC#CI [3-iodo-2-propynyl butylcarbamate (IPBC)], the growth yield was 90.1 ± 2.4% (40 h) and 89.7 ± 2.4% (72 h).
As to `CCN[C@H]1CN(CCCOC)S(=O)(=O)c2sc(S(N)(=O)=O)cc21` [Brinzolamide] + CCCCNC(=O)OCC#CI [3-iodo-2-propynyl butylcarbamate (IPBC)], the growth yield (40 h) is 76.1 ± 0.79% and the growth yield (72 h) turned out to be 86.31 ± 0.32%.
Take `Cc1ccc(C(=O)c2ccc(CC(=O)O)n2C)cc1` [Tolmetin sodium salt dihydrate] + CCCCNC(=O)OCC#CI [3-iodo-2-propynyl butylcarbamate (IPBC)]: the growth yield reads like this: (40 h) 77.8 ± 4.8%; (72 h) 83.9 ± 2.3%.
In the case of `CC[N+](C)(CC)CCOC(=O)C1c2ccccc2Oc2ccccc21` [Methantheline bromide] + CCCCNC(=O)OCC#CI [3-iodo-2-propynyl butylcarbamate (IPBC)], the growth yield by setting is: (40 h) 82 ± 1.9%; (72 h) 88.5 ± 2.1%.
As to `CC(=O)OCC(=O)[C@@]1(O)CC[C@H]2[C@@H]3CCC4=CC(=O)CC[C@]4(C)[C@@]3(F)[C@@H](O)C[C@@]21C` [Fludrocortisone acetate] + CCCCNC(=O)OCC#CI [3-iodo-2-propynyl butylcarbamate (IPBC)], the growth yield came out at 93.4 ± 5.1% (40 h) and 98.5 ± 4.7% (72 h).
As for `NC(=O)CN1CCCC1=O` [Piracetam] + CCCCNC(=O)OCC#CI [3-iodo-2-propynyl butylcarbamate (IPBC)], the growth yield stood at 85.5 ± 4.8% (40 h) and 90.2 ± 3.4% (72 h).
For `Cc1cn[nH]c1` [Fomepizole] + CCCCNC(=O)OCC#CI [3-iodo-2-propynyl butylcarbamate (IPBC)], in that order: 82.92 ± 0.32% and 87.57 ± 0.52%.
Taken in the same sequence, the figures for `NCCc1c[nH]cn1` [Histamine dihydrochloride] + CCCCNC(=O)OCC#CI [3-iodo-2-propynyl butylcarbamate (IPBC)] were 83.71 ± 0.48% and 87.4 ± 0.94%.
For `OC(Cn1cncn1)(Cn1cncn1)c1ccc(F)cc1F` [Fluconazole] + CCCCNC(=O)OCC#CI [3-iodo-2-propynyl butylcarbamate (IPBC)], the growth yield is, setting by setting: (40 h) 57.7 ± 5.9%; (72 h) 75.2 ± 8.5%.
For the compound `CC[N+](C)(C)c1cccc(O)c1` [Edrophonium chloride] + CCCCNC(=O)OCC#CI [3-iodo-2-propynyl butylcarbamate (IPBC)], the growth yield (40 h) is 101.2 ± 0.79% and the growth yield (72 h) is 108 ± 2.2%.
For `CN1CCC(=C2c3ccccc3C=Cc3ccccc32)CC1` [Cyproheptadine hydrochloride] + CCCCNC(=O)OCC#CI [3-iodo-2-propynyl butylcarbamate (IPBC)], in that order: 75.4 ± 1.4% and 93.9 ± 2.6%.
Taken in the same sequence, the figures for `CO[C@H]1/C=C/O[C@@]2(C)Oc3c(C)c(O)c4c(O)c(c(/C=N/N5CCN(C6CCCC6)CC5)c(O)c4c3C2=O)NC(=O)/C(C)=C\C=C\[C@H](C)[C@H](O)[C@@H](C)[C@@H](O)[C@@H](C)[C@H](OC(C)=O)[C@@H]1C` [Rifapentine] + CCCCNC(=O)OCC#CI [3-iodo-2-propynyl butylcarbamate (IPBC)] were 90.2 ± 0.95% and 94.5 ± 2.6%.
For `CC(C)(C)NC[C@@H](O)COc1cccc2c1CCCC2=O` [(+) -Levobunolol hydrochloride] + CCCCNC(=O)OCC#CI [3-iodo-2-propynyl butylcarbamate (IPBC)], the growth yield was 97.8 ± 16% (40 h) and 99.1 ± 12% (72 h).
Regarding `C[C@H]1O[C@H](O[C@H]2[C@H](O)[C@@H](O)[C@@H](O[C@H]3[C@H](O)[C@@H](O)C(O)O[C@@H]3CO)O[C@@H]2CO)[C@H](O)[C@@H](O)[C@@H]1N[C@H]1C=C(CO)[C@@H](O)[C@H](O)[C@H]1O` (stereo partly drawn) [Acarbose] + CCCCNC(=O)OCC#CI [3-iodo-2-propynyl butylcarbamate (IPBC)], the growth yield reads like this: (40 h) 93.7 ± 0.95%; (72 h) 104.5 ± 0.84%.
For `NNCCc1ccccc1` [Phenelzine sulfate] + CCCCNC(=O)OCC#CI [3-iodo-2-propynyl butylcarbamate (IPBC)], in that order: 112 ± 2.9% and 110 ± 4.3%.
In the case of `CC(C)c1c(CN(C)C(C)Cc2ccccc2)n(C)n(-c2ccccc2)c1=O` (stereo not drawn) [Famprofazone] + CCCCNC(=O)OCC#CI [3-iodo-2-propynyl butylcarbamate (IPBC)], the growth yield runs as follows: (40 h) 93.2 ± 12%; (72 h) 96.7 ± 8.2%.
Taken in the same sequence, the figures for `CCCc1cc(C(N)=S)ccn1` [Prothionamide] + CCCCNC(=O)OCC#CI [3-iodo-2-propynyl butylcarbamate (IPBC)] were 93.7 ± 2.2% and 98.79 ± 0.84%.
As for `N=C(NCCCCCCNC(=N)NC(=N)Nc1ccc(Cl)cc1)NC(=N)Nc1ccc(Cl)cc1` [Chlorhexidine] + CCCCNC(=O)OCC#CI [3-iodo-2-propynyl butylcarbamate (IPBC)], the growth yield amounted to 4.61 ± 0.16% (40 h) and 3.67 ± 0.32% (72 h).
`Clc1ccc(CCC(Cn2ccnc2)Sc2c(Cl)cccc2Cl)cc1` (stereo not drawn) [Butoconazole nitrate] + CCCCNC(=O)OCC#CI [3-iodo-2-propynyl butylcarbamate (IPBC)]: the growth yield reads like this: (40 h) 3.18%; (72 h) 2.62 ± 0.1%.
For `N#Cc1ccc(C(c2ccc(C#N)cc2)n2cncn2)cc1` [Letrozole] + CCCCNC(=O)OCC#CI [3-iodo-2-propynyl butylcarbamate (IPBC)], the growth yield by setting is: (40 h) 98.6 ± 8.1%; (72 h) 98.5 ± 1.6%.
`C[C@@H]1C[C@H]2[C@@H]3C[C@H](F)C4=CC(=O)C=C[C@]4(C)[C@@]3(F)[C@@H](O)C[C@]2(C)[C@@]1(O)C(=O)CO` [Flumethasone] + CCCCNC(=O)OCC#CI [3-iodo-2-propynyl butylcarbamate (IPBC)]: the growth yield is, setting by setting: (40 h) 95.6 ± 4.5%; (72 h) 97.8 ± 4.5%.
Taken in the same sequence, the figures for `O=C(O)c1cn(-c2ccc(F)cc2)c2cc(N3CCNCC3)c(F)cc2c1=O` [Sarafloxacin] + CCCCNC(=O)OCC#CI [3-iodo-2-propynyl butylcarbamate (IPBC)] were 81.2 ± 6.8% and 98.2 ± 5.5%.
For `O=C1c2c(O)cccc2Cc2cccc(O)c21` [Anthralin] + CCCCNC(=O)OCC#CI [3-iodo-2-propynyl butylcarbamate (IPBC)], in that order: 71.8 ± 3.8% and 82.4 ± 1.3%.
With `COc1cc(C(=O)OCCCN2CCCN(CCCOC(=O)c3cc(OC)c(OC)c(OC)c3)CC2)cc(OC)c1OC` [Dilazep dihydrochloride] + CCCCNC(=O)OCC#CI [3-iodo-2-propynyl butylcarbamate (IPBC)], the growth yield runs as follows: (40 h) 117 ± 7.9%; (72 h) 125 ± 2.4%.

For the origin of these results see the supplement of paper PMC8007513.
